# Earlier results, collected in publication PMC11006913.
# Changes are numbered by the printed parent chain. The list shows a part of the results.
# Assays:
# Details in all cases: PBM; conditions not shown; double strand, one strand shown; scale: upbm affinity estimate (log intensity, higher = more binding, comparable within an allelic series)
# [1] = molecular target: NKX2-5 K183E (Homo sapiens) (UniProt P52952)
# [2] = molecular target: NKX2-5 R161P (Homo sapiens) (UniProt P52952)
# [3] = molecular target: NKX2-5 R190C (Homo sapiens) (UniProt P52952)
# [4] = molecular target: T1, PBX4 (Homo sapiens) (UniProt Q9BYU1)
# T1 sequence: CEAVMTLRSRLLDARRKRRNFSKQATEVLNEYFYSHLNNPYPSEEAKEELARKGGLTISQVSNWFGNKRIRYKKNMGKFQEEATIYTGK
# [5] = molecular target: T2, PBX4 R215Q (Homo sapiens) (UniProt Q9BYU1)
# T2 sequence: T1 sequence with R19Q
# [6] = molecular target: PROP1 R112Q (Homo sapiens) (UniProt O75360)
# UniProt O75360, sequence (O75360 56-141 R112Q): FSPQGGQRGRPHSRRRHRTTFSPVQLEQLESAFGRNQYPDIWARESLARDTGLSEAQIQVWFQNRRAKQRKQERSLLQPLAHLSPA
sequence,measurement,setting,value
AAGTGCGG [8-mer AAGTGCGG],binding signal,[1],10.7
same,binding signal,[2],12
same,binding signal,[3],10.5
GCACTCGA [8-mer GCACTCGA],binding signal,[1],11
same,binding signal,[2],12.4
same,binding signal,[3],10.6
ACGCCCCG [8-mer ACGCCCCG],binding signal,[1],9.96
same,binding signal,[2],9.98
same,binding signal,[3],9.87
GCACTTAC [8-mer GCACTTAC],binding signal,[1],11.2
same,binding signal,[2],12.5
same,binding signal,[3],10.7
CCTCAAGA [8-mer CCTCAAGA],binding signal,[1],10.9
same,binding signal,[2],11.5
same,binding signal,[3],10.6
ACCGGCCT [8-mer ACCGGCCT],binding signal,[1],9.95
same,binding signal,[2],10.1
same,binding signal,[3],9.99
AGTCCGGA [8-mer AGTCCGGA],binding signal,[1],10.3
same,binding signal,[2],10.5
same,binding signal,[3],10.4
CTGACCCC [8-mer CTGACCCC],binding signal,[1],10.3
same,binding signal,[2],10.3
same,binding signal,[3],10.1
ATAAGTAC [8-mer ATAAGTAC],binding signal,[1],11.3
same,binding signal,[2],12.8
same,binding signal,[3],11
AGCACTTG [8-mer AGCACTTG],binding signal,[1],11.1
same,binding signal,[2],12.5
same,binding signal,[3],10.5
CTGGTCCC [8-mer CTGGTCCC],binding signal,[1],10.1
same,binding signal,[2],10.3
same,binding signal,[3],10.1
GCAGGGGC [8-mer GCAGGGGC],binding signal,[1],10.1
same,binding signal,[2],10.4
same,binding signal,[3],9.96
CACTTAAG [8-mer CACTTAAG],binding signal,[1],12
same,binding signal,[2],13.1
same,binding signal,[3],10.9
AACGCCGG [8-mer AACGCCGG],binding signal,[1],10.2
same,binding signal,[2],10.3
same,binding signal,[3],10.1
CACTTATA [8-mer CACTTATA],binding signal,[1],11.8
same,binding signal,[2],13
same,binding signal,[3],11.1
AGTTCGGG [8-mer AGTTCGGG],binding signal,[1],10.2
same,binding signal,[2],10.4
same,binding signal,[3],10.2
ACCCGCCC [8-mer ACCCGCCC],binding signal,[1],10.4
same,binding signal,[2],10.4
same,binding signal,[3],10.2
ACCACTTA [8-mer ACCACTTA],binding signal,[1],12.5
same,binding signal,[2],13.3
same,binding signal,[3],10.9
AGCGACCC [8-mer AGCGACCC],binding signal,[1],10.2
same,binding signal,[2],10.4
same,binding signal,[3],10.1
CACTTGAC [8-mer CACTTGAC],binding signal,[1],11.8
same,binding signal,[2],13
same,binding signal,[3],10.6
AAGTGCCC [8-mer AAGTGCCC],binding signal,[1],11
same,binding signal,[2],12.5
same,binding signal,[3],10.3
ACGCCCCA [8-mer ACGCCCCA],binding signal,[4],9.91
same,binding signal,[5],9.84
ACAATTGA [8-mer ACAATTGA],binding signal,[6],12.3
CCACTAAA [8-mer CCACTAAA],binding signal,[3],10.4
CCTCTCGA [8-mer CCTCTCGA],binding signal,[3],10.3
CCCTCTCA [8-mer CCCTCTCA],binding signal,[3],10.3
ATTTGACG [8-mer ATTTGACG],binding signal,[4],10.8
same,binding signal,[5],10.2
CATTGACG [8-mer CATTGACG],binding signal,[4],10.8
same,binding signal,[5],10.2
AGTAGTCC [8-mer AGTAGTCC],binding signal,[4],10
same,binding signal,[5],9.9
ACCCTCTC [8-mer ACCCTCTC],binding signal,[3],10.2
CCCCTTAA [8-mer CCCCTTAA],binding signal,[3],10.4
CCACTTCG [8-mer CCACTTCG],binding signal,[3],10.4
GGGTGCGA [8-mer GGGTGCGA],binding signal,[4],9.75
same,binding signal,[5],9.83
GTGATTGA [8-mer GTGATTGA],binding signal,[4],10.7
same,binding signal,[5],10.2
GGCTGCAA [8-mer GGCTGCAA],binding signal,[4],9.83
same,binding signal,[5],9.8
CACTCACG [8-mer CACTCACG],binding signal,[3],10.4
CTCCTTTA [8-mer CTCCTTTA],binding signal,[4],9.89
same,binding signal,[5],9.88
CTTAATAC [8-mer CTTAATAC],binding signal,[3],10.9
ACAAGGGG [8-mer ACAAGGGG],binding signal,[3],10.3
ATTTGATG [8-mer ATTTGATG],binding signal,[4],10.8
same,binding signal,[5],10.2
GAGTGGCC [8-mer GAGTGGCC],binding signal,[3],10.3
CCTCTCAG [8-mer CCTCTCAG],binding signal,[3],10.2
GCCTCTTA [8-mer GCCTCTTA],binding signal,[3],10.3
AAGAGAGC [8-mer AAGAGAGC],binding signal,[3],10.3
ATGAGAGG [8-mer ATGAGAGG],binding signal,[3],10.4
CACGTCCC [8-mer CACGTCCC],binding signal,[4],9.9
same,binding signal,[5],9.81
GCGACTTA [8-mer GCGACTTA],binding signal,[4],9.86
same,binding signal,[5],9.86
CAAATCAA [8-mer CAAATCAA],binding signal,[4],10.7
same,binding signal,[5],10.2
CCCCTTAG [8-mer CCCCTTAG],binding signal,[3],10.1
GTGTGCGA [8-mer GTGTGCGA],binding signal,[4],9.94
same,binding signal,[5],9.82
GGCACTCA [8-mer GGCACTCA],binding signal,[3],10.4
GCGGGTTA [8-mer GCGGGTTA],binding signal,[4],9.96
same,binding signal,[5],9.88
ACCTATTA [8-mer ACCTATTA],binding signal,[3],10.9
CCATTATA [8-mer CCATTATA],binding signal,[3],10.9
ACCGCGTA [8-mer ACCGCGTA],binding signal,[4],9.92
same,binding signal,[5],9.85
ATGACATG [8-mer ATGACATG],binding signal,[4],11
same,binding signal,[5],10.2
GACGCGAC [8-mer GACGCGAC],binding signal,[4],9.82
same,binding signal,[5],9.8
ATCCGTCA [8-mer ATCCGTCA],binding signal,[4],10.6
same,binding signal,[5],10.1
CCTCAGAG [8-mer CCTCAGAG],binding signal,[4],9.84
same,binding signal,[5],9.83
GCGCCACC [8-mer GCGCCACC],binding signal,[4],9.65
same,binding signal,[5],9.66
CCACTAGA [8-mer CCACTAGA],binding signal,[3],10.4
CCCCAAAG [8-mer CCCCAAAG],binding signal,[4],9.85
same,binding signal,[5],9.8
GCCAAGTA [8-mer GCCAAGTA],binding signal,[4],9.92
same,binding signal,[5],9.84
AGAACTTC [8-mer AGAACTTC],binding signal,[4],9.92
same,binding signal,[5],9.94
AAGGACGC [8-mer AAGGACGC],binding signal,[4],9.98
same,binding signal,[5],9.9
ACATGTTA [8-mer ACATGTTA],binding signal,[4],10.7
same,binding signal,[5],10.1
CGTCAAAG [8-mer CGTCAAAG],binding signal,[4],10.8
same,binding signal,[5],10.2
GCGAGCAC [8-mer GCGAGCAC],binding signal,[4],9.83
same,binding signal,[5],9.77
GAGGGACA [8-mer GAGGGACA],binding signal,[4],9.88
same,binding signal,[5],9.89
CATCAATC [8-mer CATCAATC],binding signal,[4],10.9
same,binding signal,[5],10.2
TCTCATCA [8-mer TCTCATCA],binding signal,[4],10.7
same,binding signal,[5],10.2
GCACAAGC [8-mer GCACAAGC],binding signal,[4],9.84
same,binding signal,[5],9.84
